Laboratory results reported in the supplement of paper PMC3334620.
The full ranking holds about 33,000 sequences; the median of “E-score (-0.5 to 0.5)” is about -0.035, and the highest 2% start at about 0.34. The list shows a part of the results.

target: T1, Mot3 (UniProt P54785); assay: PBM E-score (8-mer binding enrichment) (E-score (-0.5 to 0.5)); higher = stronger / more preferred TF binding; most listed sequences are background and not binding sites; details: protein concentration: 200 nM; construct: GST-full length
T1 sequence: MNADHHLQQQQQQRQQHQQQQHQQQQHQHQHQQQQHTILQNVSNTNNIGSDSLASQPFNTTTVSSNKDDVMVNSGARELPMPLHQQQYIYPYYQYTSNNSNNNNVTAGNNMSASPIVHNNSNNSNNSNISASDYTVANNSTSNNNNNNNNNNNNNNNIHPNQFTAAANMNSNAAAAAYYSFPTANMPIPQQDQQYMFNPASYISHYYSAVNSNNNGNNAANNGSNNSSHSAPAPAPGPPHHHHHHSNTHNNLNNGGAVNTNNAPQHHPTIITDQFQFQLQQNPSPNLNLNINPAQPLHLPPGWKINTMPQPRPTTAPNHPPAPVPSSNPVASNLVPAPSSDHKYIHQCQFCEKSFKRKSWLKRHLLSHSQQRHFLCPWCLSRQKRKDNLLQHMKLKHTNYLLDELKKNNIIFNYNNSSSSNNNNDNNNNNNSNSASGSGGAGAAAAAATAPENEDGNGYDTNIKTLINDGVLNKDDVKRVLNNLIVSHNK
Outline: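 Yeast transcription factors, full-length or as DNA-binding domains, were expressed with a GST tag using PURExpress in vitro transcription/translation. At about 100-200 nM they were applied to universal all-10-mer Agilent arrays, double-stranded by primer extension on fresh or once-stripped slides. Fluorescent anti-GST detected bound protein, and masliner normalised the scans. E-scores for ungapped eight-base words, pooled with reverse complements, came from the Universal PBM Analysis Suite.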

Point of comparison: AGCCAGCT, “PBM E-score” value -0.0592. Against it:
- GACAGTGA — higher, -0.0351
- ACACAATA — higher, 0.259
- TAAGCCAA — higher, 0.00611
- TACACGCA — higher, 0.346
- CTCGGTCA — higher, -0.0339
- AAGTGATC — higher, -0.0544
- ATATTGGA — higher, 0.0164
- TCAGGAAA — higher, 0.394
- CCGAGCCA — lower, -0.204
- TAGTGGGA — lower, -0.112
- ACCCGGGG — lower, -0.176
- GATTACGC — higher, 0.23
- GCGAGAGC — lower, -0.152
- AATTTAAT — higher, 0.162
- AGCGAAAG — lower, -0.111
- AGACAATA — higher, 0.00367
- CATTATCA — higher, 0.0439
- ACCGCTAA — higher, 0.038
- CGAAAGAG — higher, -0.0479
- TAGTATGA — higher, 0.0188
- CAAATGCA — higher, 0.0602
- AATTTGCT — higher, -0.00694
- GCAAATGA — higher, 0.0824
- ACATAGGT — higher, 0.282
- GCATCATA — higher, 0.134
- GACCAACA — higher, 0.2
- ATAGAAGA — higher, 0.0613
- AGAGCCCC — lower, -0.319
- CCACATAC — higher, 0.088
- ACACTTGA — lower, -0.0599
- GAAAGTAC — higher, 0.148
- TCATAGAA — higher, 0.0896
- GACGATAC — higher, -0.00304
- ACACACCA — higher, 0.31
- GTAGACGA — higher, 0.0444
- AGAGCGAG — lower, -0.287
- CCTACGCC — higher, -0.0194
- ATCACGCC — higher, -0.058
- CTAGAGGC — higher, 0.0525
- GTGCCGGA — lower, -0.187
- CCGTCTCG — lower, -0.0935
- GAGTAAGA — higher, 0.125
- GGACGGGA — lower, -0.218
- AACCACTA — higher, 0.0837
- GCTTAACC — higher, 0.133
- AGTGCAGC — lower, -0.254
- ACGATCGA — higher, -0.0256
- GTTCCTGA — higher, 0.428
- AATATGAT — higher, 0.00576
- AGTGACGC — lower, -0.199
- CGCTTTTA — higher, 0.0891
- ATCACGGC — higher, -0.0339
- TACTGCAA — higher, -0.0418
- ACCTGGAG — higher, 0.0144
- AACTTGCT — higher, 0.0474
- TATTCCGA — lower, -0.0677
- ATTACGTC — higher, 0.269
- CGCATAAC — higher, 0.00678
- AACAAGGC — higher, 0.29
- CACGATTC — higher, 0.065
- GCTCGACA — higher, -0.0507
- CAGGCCTC — lower, -0.252
- GACTTCCC — higher, -0.0179
- CGAAACAC — higher, 0.102
- ACAAGTCA — higher, 0.0709
- CTGTCGGA — lower, -0.115
- AACATGGG — higher, 0.282
- GGCATAAC — higher, 0.105
- AGATGCTA — lower, -0.0898
- ACACGTGG — higher, 0.236
- ATGACAGG — higher, -0.00954
- AAATGCAT — lower, -0.0946
- TGCAGGCA — higher, 0.484
- CCAATCGC — lower, -0.146
- AGCAAGGC — higher, 0.15
- ACCCTTGG — lower, -0.167
- TCCAGCCA — lower, -0.148
- TACAGTGA — higher, 0.0925
- AATACAAA — higher, 0.244
- ACGCGGTG — higher, 0.171
- GAAGATGC — lower, -0.166
- AAGGGCTG — lower, -0.256
- CCGATATC — lower, -0.159
- GAACCTAA — higher, 0.0513
- GGAGGGAA — lower, -0.19
- CGCCAAAC — lower, -0.165
- CCTATACC — higher, -0.054
- AGATTGGA — lower, -0.0717
- GGCGATCA — lower, -0.127
- CAGACAGG — lower, -0.0992
- AGGACGAA — lower, -0.113
- AATGCCGT — higher, 0.0189
- TAAAGCAA — higher, 0.0809
- CATTGCAA — higher, 0.0174
- CTCGCCCA — lower, -0.196
- TGCAGCCA — lower, -0.192
- AGCCTTCA — higher, 0.157
- CTAGTGAC — higher, 0.0128
- CGCAGTAG — lower, -0.179
- CATGAGCC — higher, 0.137
- ATTGGGGA — lower, -0.228
- AATCACTA — higher, 0.057
- CCATAGCG — lower, -0.285
- ATTGTCCG — higher, -0.0544
- AATTGCCA — higher, -0.0186
- GGTACAAA — higher, 0.202
- CTCGATGA — lower, -0.0886
- AACACCTC — lower, -0.105
- CGCATCGA — lower, -0.0785
- TATCACCA — higher, 0.0489
- GTGTCAAC — higher, 0.206
- AGAATTTG — lower, -0.172
- AAAGCTGG — lower, -0.162
- GCTCCGTA — lower, -0.141
- CATTCAAA — higher, 0.0266
- AGCTCCCG — lower, -0.195
- ATATATAC — higher, 0.238
- GTAGGAAA — higher, 0.429
- TATATCCA — higher, 0.00446
- AACCAGGG — higher, 0.18
- ATGCAACA — higher, 0.0771
- CACAGTCG — lower, -0.0968
- AATTGTCT — higher, 0.0727
- AGGGTTGG — lower, -0.145
- CAATTTTA — higher, 0.0555
- TACCGATA — lower, -0.225
- AACCCAGC — lower, -0.152
- GCCTATAA — higher, 0.33
- GCGGACAC — lower, -0.3
- CAACCCCG — lower, -0.231
- CGAACTCC — higher, 0.111
- GCCTCAGA — lower, -0.0614
- GCGGCGTA — higher, -0.0503
- AACCCCAC — higher, 0.0413
- GACTCCCC — lower, -0.294
- AACCCCAT — higher, 0.0292
- CAAGCACG — higher, 0.204
- TCTTCCCA — higher, -0.0496
- CGCTAGCG — lower, -0.207
- CAGGGGTA — lower, -0.221
- AACCTTGT — higher, 0.082
- ACCGTCAT — lower, -0.0683
- ACCACTAG — higher, -0.0578
- CCTCGACG — lower, -0.0624
- CGGCCCAG — lower, -0.454
- CCCGTCCG — lower, -0.261
- CCAATCCA — lower, -0.104
- ACTCCAGC — lower, -0.108
- AAGATGCT — higher, 0.00596
- GCGACAGC — lower, -0.234
- AAGAATGA — higher, 0.101
- CGTTTCGA — higher, -0.0289
- ACGTGGCC — lower, -0.065
- ATTAATTA — higher, 0.106
- AGGAGTGA — lower, -0.073
- AAACTACC — higher, 0.0689
- CAACCCGA — lower, -0.0767
- ACATTGTG — higher, 0.172
- ACATGGCA — higher, 0.247
- AGAGGGGG — lower, -0.353
- AAACACGG — higher, 0.243
- ACGCGAAG — higher, 0.226
- AAGTATAA — higher, 0.146
- ACGGCACC — higher, 0.0514
- GCCCACAA — lower, -0.198
- ACTCCTTA — higher, -0.0478
- CATTCCTA — lower, -0.129
- TCGAATCA — higher, -0.0585
- GTGCCGCA — lower, -0.251
- TCATTCCA — lower, -0.229
- AGCTCGAA — lower, -0.151
